The campaign covered roughly 16,000 compounds. About 120 (0.75%) were called active. Another 4% or so got no clear call; they are omitted. Calls follow the shape of the dose curve; as a rule, active = well fitted inhibition curve with a large enough effect; inconclusive = small, poorly fitted or top-dose-only effect; inactive = no such curve, though single readings can be large or run the other way. The list shows a part of the results.
The molecules below were run against Rap guanine nucleotide exchange factor 3 (Homo sapiens) (UniProt O95398) (assay: Validation qHTS for antagonist of cAMP-regulated guanine nucleotide exchange factor 3 (EPAC1)). Settings: EPAC1 Rap1B-BODIPY-GDP exchange, fluorescence; series mostly up to 150 µM; activity change, negative = inhibition: at the top concentration.
Sequence of UniProt O95398 (O95398 whole entry, looked up): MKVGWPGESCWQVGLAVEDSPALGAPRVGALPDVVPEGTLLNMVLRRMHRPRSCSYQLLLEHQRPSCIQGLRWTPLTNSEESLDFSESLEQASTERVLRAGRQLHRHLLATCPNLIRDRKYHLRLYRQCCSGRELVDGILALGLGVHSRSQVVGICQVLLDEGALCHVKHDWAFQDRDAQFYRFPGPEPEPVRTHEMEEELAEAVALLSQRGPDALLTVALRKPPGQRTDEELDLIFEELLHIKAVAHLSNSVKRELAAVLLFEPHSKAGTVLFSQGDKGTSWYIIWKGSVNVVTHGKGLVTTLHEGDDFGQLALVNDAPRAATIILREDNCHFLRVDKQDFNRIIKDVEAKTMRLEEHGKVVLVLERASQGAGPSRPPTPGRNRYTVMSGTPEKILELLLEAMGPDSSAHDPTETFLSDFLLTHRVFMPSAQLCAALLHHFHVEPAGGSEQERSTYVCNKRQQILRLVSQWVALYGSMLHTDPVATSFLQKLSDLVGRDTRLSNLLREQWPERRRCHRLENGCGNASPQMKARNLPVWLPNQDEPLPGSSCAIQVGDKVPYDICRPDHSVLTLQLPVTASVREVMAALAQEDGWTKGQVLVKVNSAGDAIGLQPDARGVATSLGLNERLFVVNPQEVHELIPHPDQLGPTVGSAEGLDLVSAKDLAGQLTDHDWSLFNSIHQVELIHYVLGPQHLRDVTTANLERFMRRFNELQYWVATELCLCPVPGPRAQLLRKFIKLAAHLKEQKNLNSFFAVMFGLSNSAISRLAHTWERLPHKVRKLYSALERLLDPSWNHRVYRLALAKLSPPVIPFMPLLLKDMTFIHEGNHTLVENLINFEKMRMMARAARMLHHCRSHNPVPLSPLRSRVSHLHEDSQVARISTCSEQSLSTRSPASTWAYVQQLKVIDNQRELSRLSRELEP
Procedure, shortened: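 EPAC1 (100 nM) mixed with 250 nM RAP1B-BODIPY-GDP and 50 uM GDP; compounds in concentration series, 5 min at room temperature. Fluorescence (ex 480/em 540 nm) read every 5 min for 30 min; normalized to ATA control and DMSO.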
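Also: plate controls were DMSO for no effect and ATA control for full effect; nearly all actives have a fitted effect of over 75% in size.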

Activity change, negative = inhibition, inactive:
O=C(C[n+]1cccc2cc(Cl)ccc21)c1ccc(I)cc1 -17.6%
CC(C)C[C@@H](CO)N1CCN(Cc2ccc([N+](=O)[O-])cc2)CCC1=O 2.45%
COc1cc(OC)c(CN2CCOc3ccc(CN4CCC(O)CC4)cc3C2)c(OC)c1 5.93%
CC(C)(Oc1ccc(C2CC2(Cl)Cl)cc1)C(=O)O (stereo not drawn)
COCCn1c(=O)c(-c2ccc(F)c(F)c2)nc2cncnc21 -6.94%
CCCCC[C@H](O)/C=C/[C@@H]1[C@@H](CCCCCCC(=O)O)[C@@H](O)C[C@H]1O 1.78% [at 15.3 µM]
Cc1cc(C(=O)NCCN2Cc3ccccc3OC(c3ccccc3F)C2)no1 (stereo not drawn) 20%
N[C@@H](CSS(=O)(=O)O)C(=O)O
CS(=O)(=O)Nc1cccc(-c2nccc(-n3ccnc3)n2)c1 22.7%
Cc1cnc(-n2ncc(C(=O)N(C)CCc3ccccn3)c2-c2cccs2)nc1-c1ccc(F)cc1 10.8%
COC1[C@H](OC(N)=O)C(O)[C@H](Oc2ccc3c(O)c(NC(=O)c4ccc(O)c(CC=C(C)C)c4)c(=O)oc3c2C)OC1(C)C (stereo partly drawn) 10%
O=C(c1cccc(F)c1)N(Cc1cc2cc3c(cc2nc1N1CCOCC1)CCC3)CC1CCCO1 (stereo not drawn) 27.7%
COCCN1CCN(C(=O)c2cnn(-c3ncc4c(n3)-c3ccc(OC)cc3CC4)c2C2CC2)CC1 -11%
COc1ncc2ncc(=O)n(C)c2n1 12%
CCN(CC)c1ccc(/C=C/c2ccncc2)cc1 -25%
CN1CCN(c2cc(-c3ccccc3Cl)ncn2)CC1 11.2%
CC(C)CN1CCC(=O)N([C@H](COc2ccccc2)c2ccccc2)CC1 -12.3%
COc1cc(C)c2c(=O)cc(-c3ccccc3)oc2c1 1.18%
CC(C)NC(=O)N1CC[C@@]2(CCCN(C(=O)c3ccncc3)C2)C1 15.2%
COc1ccc(Cl)cc1N1C(=O)[C@@H]2C[C@H]1CN2Cc1nc2ccccc2nc1C 0.568%
CC(CCC(=O)O)C1CCC2C3C(O)C[C@@H]4CC(O)CC[C@@]4(C)C3CC[C@@]12C (stereo partly drawn)
CCNc1ncc2nc(-c3cc(F)cc(F)c3)c(=O)n(CCOC)c2n1 5.64%
Cn1c(=O)c2c(ncn2CC(O)CO)n(C)c1=O (stereo not drawn)
C=CCCCCCCCCC(=O)OC 15.3%
COc1ccc(C(=O)N2CCC3(CC2)CCN(c2cccc(-c4ccccc4)c2)CC3)cc1 6.89%
COc1ccc(-c2nc3cnc(N4CCNCC4)nc3n(C3CC3)c2=O)cc1 13.9%
NCCC(=O)N[C@@H](Cc1cnc[nH]1)C(=O)O 9.17%
NC(=O)c1cccnc1 16.9%
CO/N=C(\C(=O)N[C@@H]1C(=O)N2C(C(=O)O)=C(COC(C)=O)CS[C@H]12)c1csc(N)n1 (stereo in doubt) 9.93%
Cc1cnc(CNc2cc(-c3cccc(NS(C)(=O)=O)c3)ncn2)cn1 3.6%
Cc1cccc(CNc2ncnc3ccc(-c4ccccc4CN(C)C)cc23)c1 26%
COc1cc(-c2cc(C)c3cccc(OC)c3n2)cc2c1OCCN(C(=O)CC1NC(=O)c3ccccc31)C2 (stereo not drawn) 13.2%
COc1ccc(-c2nc3cnc(OC)nc3n(CCc3ccccc3)c2=O)cc1 4.25%
Nc1nccs1 12.4%
NS(=O)(=O)c1cc2c(cc1Cl)N[C@@H]([C@@H]1C[C@@H]3C=C[C@H]1C3)NS2(=O)=O -3.09%
O=C(O)CCc1nc2ccccc2[nH]1 10.1%
C[N+]1(CC(=O)c2ccc(I)cc2)CCCc2ccccc21 (stereo not drawn) -7.84%
CC(C)(O)C#Cc1ccc(CN2CCc3nnc(CNC(=O)c4cccc(F)c4)n3CC2)cc1 2.11%
CCC(C)(CN(C)C)OC(=O)c1ccccc1 (stereo not drawn) 15.7% [at 75.8 µM]
CC(=O)OC1CC[C@@]2(C)C(CC[C@@]3(C)C2CC=C2C4CC(C)(C)CC[C@]4(C(=O)O)CC[C@@]23C)C1(C)C (stereo partly drawn) 14.1%
OC(c1ccc2c(c1)CN(Cc1cccc3nccnc13)CCO2)C1CCCCC1 (stereo not drawn) -0.294%
CCCc1nc(C)c2c(=O)[nH]c(-c3cc(S(=O)(=O)N4CCN(CC)CC4)ccc3OCC)nn12 17.5%
N#Cc1ccccc1-c1ccc2ncnc(NC3CC3)c2c1 5.12%
CC(Oc1ccccc1)C(=O)N[C@@H]1C(=O)N2[C@@H]1SC(C)(C)[C@@H]2C(=O)OCc1ccccc1 (stereo partly drawn) -1.34%
C[N+]1(C)[C@@H]2CC(OC(=O)[C@H](CO)c3ccccc3)C[C@H]1[C@H]1O[C@@H]12 (stereo partly drawn) -11.4%
COc1ccc(NC(=O)N2CCCC3(CCN(C(=O)c4c(C)noc4C)CC3)C2)cc1 17.5%
COc1cc(CN2CCc3nnc(C(NS(C)(=O)=O)C(C)C)n3CC2)ccc1F (stereo not drawn) 4.91%
COc1ccc(OC)c(CN2CCOc3ccc(C(O)c4cccnc4)cc3C2)c1 (stereo not drawn) 2.99%
CNC1(C)C2CCC(C2)C1(C)C (stereo not drawn)
Cc1nc2cncnc2n(Cc2ccccc2Cl)c1=O 10.2%
NC(=O)C1(N2CCCCC2)CCN(CCCC(=O)c2ccc(F)cc2)CC1 13.6%
COCCn1c(=O)c(-c2cn(C)c3ccccc23)nc2cnc(OCc3ccccc3)nc21 9.75%
O=C(c1ccco1)N1CCC2(CC1)CCN(C(c1ccccc1)c1ccccc1)CC2 -3.06%
S=c1nc[nH]c2nc[nH]c12
CN(Cc1ccco1)c1nc(-c2cccc(C#N)c2)nc2ccccc12 13.2%
CS(=O)c1ccc(-c2nc(-c3ccc(F)cc3)c(-c3ccncc3)[nH]2)cc1 (stereo not drawn)
CC(C)CN1CC[C@@]2(CCCN(C(=O)c3csnn3)C2)C1 23%
COCCn1c(=O)c(-c2ccc(F)cc2)nc2cncnc21 13.6%
CC(C)CN1CCC(=O)N(CCO)CC1 -21.2%
COc1cccc(Cn2c(=O)c(C)nc3cnc(N4CCNCC4)nc32)c1 24.7%
C=C1CCC2[C@](C)(CO)[C@H](O)CC[C@@]2(C)[C@@H]1C/C=C1/C(=O)OC[C@H]1O (stereo partly drawn) 3.35%
COC(=O)C(O)C1C(C)(C)C(OC(C)=O)C2CC3=C4CC(=O)OC(c5ccoc5)[C@]4(C)CCC3[C@@]1(C)C2=O (stereo partly drawn) 5.22%
CCCCCC1CCNCC1 17.2%
COc1ccc2[nH]cc(CCNc3ccnc(-c4ccccc4Cl)n3)c2c1 -28.5%
COCCn1c(=O)c(-c2ccc(F)cc2)nc2cnc(OCc3ccccc3)nc21 4.05%
COc1ccccc1-c1cncnc1Nc1ccccc1 7.54%
CNc1ccnc(-c2ccccc2C)n1 9.48%
O=S1(=O)CCOC[C@H](c2ccccc2)N1Cc1ccccc1F -18%
Cc1nn(-c2ccccc2)c(C)c1CC(=O)NCC1Cc2cc(-c3cncnc3)ccc2O1 (stereo not drawn) 22%
COc1ccc(-n2c(CNC(=O)c3ccc(OC)cc3OC)nnc2SC)cc1 -5.6%
N#Cc1cccc(NC(=O)N2CC3(CCN(C(=O)c4cc(C(F)(F)F)cc(C(F)(F)F)c4)CC3)C2)c1 -12.9%
Cc1c(C(=O)NCCc2ccncc2)cnn1-c1nccc(-c2ccccc2C(F)(F)F)n1 5.47%
Cc1oc(-c2ccccc2NC(=O)C2CCC2)nc1CNC(=O)c1ccccn1 4.5%
CO/N=C1\CN(c2nc3c(cc2F)c(=O)c(C(=O)O)cn3C2CC2)CC1CN (stereo not drawn) 21.3%
Clc1ccccc1C(c1ccccc1)(c1ccccc1)n1ccnc1
NC(=O)NO
O=S(=O)(c1ccccc1)N1CCC2(CC1)CN(C(c1ccccc1)c1ccccc1)C2 -6.86%
COc1ccc2cc(CNCc3ccccc3Cl)c(N3CCCC(CO)C3)nc2c1 (stereo not drawn) 12.3%
COc1ccc(CN2CCOc3ccc(C(O)c4cccnc4)cc3C2)c(OC)c1OC (stereo not drawn) 9.63%
Cn1c(=O)c(-c2ccc(F)cc2)nc2cnc(Oc3ccccc3)nc21 8.74%
O=C(Nc1ccccc1)N1CC2(CCN(C(=O)c3ccco3)CC2)C1 17.2%
COC1C(O)C(CO)OC1n1c(Br)nc2c(=O)[nH]c(N)nc21 (stereo not drawn) -17.2%
CCCCCCCCCCCCCCCCCC[N+](C)(C)CCC[Si](OC)(OC)OC 29.3%
O=C(NCC1CCC2(CCN(Cc3cccn3-c3ccc(Cl)cn3)CC2)O1)c1ccccc1 (stereo not drawn) 6.96%
CN1CCC[C@H]1c1cccnc1
O=c1c(-c2cc(F)cc(F)c2)nc2cnc(Oc3ccccc3)nc2n1C[C@H]1CCCO1 7.05%
COCCn1c(=O)c(-c2ccc(Cl)cc2)nc2cnc(Oc3ccccc3)nc21 7.46%
COc1ccc(-n2c(=O)c(-c3ccc(Cl)cc3)nc3cnc(N(C)C)nc32)cc1 54.6%
CCCC(C(=O)OCCN(CC)CC)(c1ccccc1)c1ccccc1
CN(C)c1ncc2nc(-c3cccs3)c(=O)n(CCc3ccccc3)c2n1 5.01%
CC(=O)CCC(=O)N1CCC(n2c(C3CCCO3)nc3cc(C(F)(F)F)ccc32)CC1 (stereo not drawn) 8.38%
OC(c1cccnc1)c1ccc2c(c1)CN(Cc1cn(-c3ccccc3)nc1-c1ccccc1)CCO2 (stereo not drawn) -13.6%
N#C/C(=C\c1cc(Cl)cc(Cl)c1)c1cccnc1
COc1ccccc1N1CCN(C[C@@H](C(=O)NC(C)(C)C)c2ccccc2)CC1 -11.5%
CCOC(=O)c1ccc(OC(=O)CCCCCN=C(N)N)cc1
CCCCCCCCCCCCCCCC(=O)C1=C(O)C(CO)OC1=O (stereo not drawn) 11.8% [at 201 µM]
C=CC[N@@+]12CC[C@@]34c5ccccc5N5/C=C6/[C@H]7C[C@H]8[C@@]9(CC[N@@+]8(CC=C)C/C7=C/CO)c7ccccc7N(/C=C(/[C@@H](C[C@@H]31)/C(=C\CO)C2)[C@H]54)[C@@H]69 -5.3% [at 75.8 µM]
CC(C)=CCC/C(C)=C/COc1ccc2ccc(=O)oc2c1 -20.7%
CCCSS/C(CCO)=C(\C)N(C=O)Cc1cnc(C)nc1N 19%
O=C(C1CCOC1)N1CCOc2ccc(CN3CCC(Oc4cccnc4)CC3)cc2C1 (stereo not drawn) 7.19%
COc1cc(CC(=O)O)ccc1O
O=C(c1cccc(F)c1)N1CCC2(CC1)CCN(c1ccc(-c3ccccc3)cc1)CC2 27.5%
O=c1[nH]c2cc(Cl)ccc2c(O)c1-c1ccc(Oc2ccccc2)cc1 20.5% [at 75.8 µM]

Reference: PubChem BioAssay AID1645882 (National Center for Advancing Translational Sciences (NCATS), 2021)
